According to PubChem BioAssay AID1963446 (Molecular Pharmacology Branch, DTP, NCI, 2024):
A number of entries come with more than one value. This is not the full list of results. There may be further records. The records of an entry repeat one measurement (runs, samples, wells, individuals or studies). Additions like (4×) give the number of equal values in this list. Dates in brackets are months of testing. Each block holds one compound with its values, some of them ahead of it.

Test system: 993429-296-R-J1-PDC complex spheroid growth, percent test/control
Test: Anticancer human tumor 993429-296-R-J1-PDC patient-derived uterine sarcoma cell line growth inhibition [Asc]
Details: for viability, T/C: stronger effect = lower value; for IC50: compound alone
Protocol: Multicellular complex tumor spheroid response to apoptosis pathway targeting inhibitors Alrizomadlin, Pelcitoclax, and Dasminapant in combination with a variety of drugs and investigational agents in selected tumor cell lines
The MDM2 inhibitor alrizomadlin, the Bcl-2/Bcl-xL inhibitor pelcitoclax, and the IAPs inhibitor dasminapant were evaluated both individually and in combination with standard of care and investigational anticancer small molecules within a complex spheroid model of solid tumors. . Complex spheroids include a stromal component modeled by human endothelial cells (HUVEC) and fibroblasts modeled by human mesenchymal stem cells (MSCs). The concentration ranges selected for each drug and investigational agent were based upon clinically achievable concentrations if the clinical Cmax of the agent was known.
Compounds. The drugs and investigational agents: alrizomadlin (APG-115; NSC831270), pelcitoclax (APG-1252; NSC835773), dasminapant (APG-1387;NSC834197), TAK-243 (NSC785004), copanlisib (NSC809693), olaparib (NSC753686), talazoparib (NSC767125), cobimetinib (NSC 768068), eltanexor (KPT-8602, NSC 794443), abemaciclib (NSC 768073), sotorasib (NSC818433), adagrasib (NSC 831453), MRTX-1133 (NSC 836407), Iadademestat (ORY1001, NSC 806812), and RMC-4630 (NSC839698), were obtained from the NCI Developmental Therapeutics Program Chemical Repository. The FDA-approved anticancer drug set is available from the Developmental Therapeutics Program at https://dtp.cancer.gov/organization/dscb/obtaining/available plates.htm. […] The stock solutions were prepared in dimethyl sulfoxide (DMSO, Sigma-Aldrich, St. Louis, MO, cat. D2650) at 800-fold the tested concentration and stored at -70 degrees C prior to their use. All drugs and investigational agents were tested over a range starting from a high concentration at or near the clinical Cmax and decreasing in half-log increments. If the clinical Cmax for an agent had not been determined, the highest concentration tested was 10 microM.
The patient-derived cancer (PDC) cell lines include five colon adenocarcinomas: 186277-243-T-J2-PDC, 616215-338-R-J1-PDC, 439559-082-T-J2-PDC, 463943-066-T-J2-PDC, and 519858-162-T-J1-PDC; three pancreatic carcinomas: 323965-272-R-J2-PDC, 521955-158-R6-J3-PDC, and 521955-158-R2-J5-PDC; two uterine sarcomas: 327498-152-R-J2-PDC and 993429-296-R-J1-PDC; two rhabdomyosarcomas: 755483-174-R-J1-PDC and 772245-204-R-J1-PDC; two soft tissue sarcomas: 126254-015-R-J1-PDC and 494315-158-R-J1-PDC; two malignant fibrous histiocytomas: 317291-083-R-J1-PDC and 596521-263-R-J1-PDC; two breast carcinomas: 171881-019-R-J1-PDC and 885512-296-R-J2-PDC; and one ovarian carcinoma: 6556581-035-R-J-PDC were obtained from the NCI PDMR, (https://pdmr.cancer.gov). The established cell lines HSSY-2 synovial sarcoma (RRID:CVCL 8719), SYO-1 synovial sarcoma (RRID:CVCL_7146), MPNST malignant peripheral neural sheath tumor were obtained from the Sloan Kettering Institute. The following established cell lines were purchased from the American Type Culture Collection (ATCC, Manassas, VA), Sor the received from the NCI repository:, PANC-1 pancreatic carcinoma (CRL-1469, RRID:CVCL_0480), OVCAR-5 ovarian carcinoma (RRID:CVCL_1628), OVCAR-8 ovarian carcinoma (RRID:CVCL_1629), , MCF-7 breast carcinoma (CRL-12584, RRID:CVCL_0031), MDA-MB-231 breast carcinoma (CRL-12532, RRID:CVCL_0062), NCI-H1876 small cell lung carcinoma (CRL-5902, RRID:CVCL_1503), NCI-H510A small cell lung carcinoma (HTB-184, RRID:CVCL_1565), NCI-H1417 (CRL-5869, RRID:CVCL_1469), and NCI-H196 small cell lung carcinoma (CRL-5823, RRID:CVCL_1509). Dr. Peter Houghton (Greehey Children's Cancer Research Institute, University of Texas Health Science Center, San Antonio, TX) provided Rh-18 rhabdomyosarcoma (RRID:CVCL_1659). Pooled donor human umbilical vein endothelial cells (HUVEC, Lonza, cat. CC-2519) and human mesenchymal stem cells (hMSC, Lonza, cat. PT-2501) were purchased from Lonza (Walkersville, MD).
Cell Culture. […]
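Also: spheroids exposed to compounds for seven days.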

Compound: CCN1C(C(=O)NC23CCC(C(=O)O)(CC2)CC3)C(c2cccc(Cl)c2F)C2(C(=O)Nc3cc(Cl)ccc32)C12CCCCC2 (configuration not stated)
viability, T/C (compound alone 0.03 µM): 93.3, 106, 99.8, 91.9 (2×), 101, 90.7, 79.8, 91, 98.7, 91.1, 87.8, 100, 93.9% [2022-09] and 99.7% [2022-10]
viability, T/C (compound alone 0.0949 µM): 111, 113, 89.2, 99.4, 92, 97.4, 101, 93.6, 90.4, 87.5, 87.7, 86.4, 87, 76.3% [2022-09] and 110% [2022-10]
viability, T/C (compound alone 0.3 µM): 92.3 (2×), 89.1, 102 (2×), 108, 89.6, 82.8, 92.6, 103, 87, 95.8, 88.9, 92.1% [2022-09] and 104% [2022-10]
viability, T/C (compound alone 0.949 µM): 88, 103, 89.5, 96.9, 85.3, 80.1, 89.1, 112, 93.8, 108, 98.4, 107, 90.8, 84.6% [2022-09] and 95% [2022-10]
viability, T/C (compound alone 3 µM): 87, 100, 84.5, 99.8, 98.4, 83.6, 93, 76, 101, 71.8, 86.4, 74.8, 99.6, 88.1% [2022-09] and 96.7% [2022-10]

IC50 (run of 09/27/2022): > 10 µM and 676 nM
Compound: Cc1c(S(C)(=O)=O)c(-c2cc(F)cc(N3CCN(c4ccc(NS(=O)(=O)c5ccc(NC(CCN6CCC(C(=O)OCCCP(=O)(O)O)CC6)CSc6ccccc6)c(S(=O)(=O)C(F)(F)F)c5)cc4)CC3)c2)c(-c2ccc(Cl)cc2)n1C(C)C (configuration not stated)
viability, T/C (compound alone 0.1 µM): 78.4, 79.8 (2×), 68.8, 73.7, 73.5, 54.7, 70.3, 71, 64, 85.3, 80.2, 73.8, 89.7%
viability, T/C (compound alone 1 µM): 51.6, 56.2, 63.3, 47.3, 51.4, 53.1, 47.4, 42.9, 49.3, 52, 67.8, 69.8, 57.4% (2×)
viability, T/C (compound alone 10 µM): 72.8, 100, 61.4, 56.8, 80.5, 76.9, 87.4, 74.2, 76.5, 89.5 (2×), 75.1, 92.7, 80.4%

Compound: C#Cc1c(F)ccc2cc(O)cc(-c3ncc4c(N5CC6CCC(C5)N6)nc(OCC56CCCN5CC(F)C6)nc4c3F)c12 (configuration not stated)
viability, T/C (compound alone 10 µM): 5.06%, 3.76% [2022-09] and 89.8% [2022-10]

Compound: CNC(C)C(=O)NC1CN(S(=O)(=O)c2cccc(S(=O)(=O)N3CCC4CCC(C(=O)NC(c5ccccc5)c5ccccc5)N4C(=O)C(NC(=O)C(C)NC)C3)c2)CCC2CCC(C(=O)NC(c3ccccc3)c3ccccc3)N2C1=O (configuration not stated)
viability, T/C (compound alone 0.316 µM): 50.2%, 71.8% [2022-09] and 44.8, 58.1, 60.6, 45.7, 40.3, 65.2, 59.5, 68.4, 49.8, 53, 49.5, 57.4, 47.1% [2022-10]
IC50 (run of 10/03/2022): 227 nM, 562 nM, 132 nM, 190 nM, 324 nM, 425 nM, > 1 µM, 295 nM
